Columns and labels:
[1] = target: T1, Human ENTPD1 (Homo sapiens, UniProt P49961); assay: Cross reactivity: FACS binding to human ENTPD1 expressing NIH/3T3 cells; conditions: NIH/3T3-ENTPD1 cells, 50 nM antibody
T1 construct: expressed in transfected cells; host or cells: NIH/3T3 (retroviral transduction, FACS-sorted)
T1 sequence (P49961 1-510): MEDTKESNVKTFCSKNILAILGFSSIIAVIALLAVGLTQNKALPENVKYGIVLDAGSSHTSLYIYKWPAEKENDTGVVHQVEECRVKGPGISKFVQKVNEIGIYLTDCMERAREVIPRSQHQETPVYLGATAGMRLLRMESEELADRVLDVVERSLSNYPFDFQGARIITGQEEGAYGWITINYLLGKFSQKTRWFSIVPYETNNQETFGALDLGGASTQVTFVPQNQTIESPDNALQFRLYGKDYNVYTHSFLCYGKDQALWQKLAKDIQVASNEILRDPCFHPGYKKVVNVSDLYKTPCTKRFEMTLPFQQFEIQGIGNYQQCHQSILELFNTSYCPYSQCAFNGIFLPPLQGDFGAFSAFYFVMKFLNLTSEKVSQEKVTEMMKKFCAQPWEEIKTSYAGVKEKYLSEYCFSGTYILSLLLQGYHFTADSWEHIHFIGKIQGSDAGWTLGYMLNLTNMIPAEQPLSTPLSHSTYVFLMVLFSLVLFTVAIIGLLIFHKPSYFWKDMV
Experimental: (§1) FACS screening: Specific binding of candidate antibodies to endogenously expressed ENTPD2 was assessed by flow cytometry. Cells were rinsed thoroughly with 1×PBS and treated with Accutase (Millipore #SCR005) to lift from growth plates and resuspended at approximately 1×10^5 cells/90 μL in 1× FACS buffer (2% FBS+0.1% NaN3 in PBS). In a 96-well U-bottom plate, 10 μL of 10× antibody solution in FACS buffer was pre-seeded and 90 μL of cell suspension was added. Cell were incubated for 30 minutes at 4° C., washed 1× with cold PBS and resuspended in 100 μL of 1:500 secondary antibody 1× FACS buffer (Allophycocyanin conjugated F(ab′)2 goat anti-human IgG, Fcγ specific; Jackson Immunoresearch, Cat#109-136-098). After additional incubation for 15 min at 4° C., cells were washed twice with PBS and resuspended in 100 μL of 1×FACS buffer with 4 μg/mL propidium iodide (Life Technologies, Cat#P3566). Geometric mean fluorescence intensity was calculated on live single cells using FlowJo software.
Cross reactivity Human ENTPD1 (NP_001767) expressing NIH/3T3 cells were generated using a retroviral transduction approach. 72 hrs post transduction, engineered cells were stained with the anti-Human CD39/ENTPD1 APC-conjugated Antibody (R&D systems, Minneapolis, Minn.) and live cells that expressed human ENTPD1 were separated from the rest of the population via fluorescence activated cell sorting. Stable expression of ENTPD1 was periodically re-confirmed by FACS with the above described anti-Human CD39/ENTPD1 APC-conjugated Antibody (1:100).

[2] = Cynomolgus monkey single and multiple dose pharmacokinetics; conditions: for Cmax: male cynomolgus monkey, i.v.
[3] = tested on: H520 cells; assay: Cross reactivity: FACS binding to H520 cells (ENTPD3 and ENTPD8 expression); parameters: species or system human; conditions: 50 nM antibody
Experimental: as §1
H520 cells were identified as a cancer cell line with ENTPD3 (Ct 25) and ENTPD8 (Ct 26) expression by Taqman and were used for selectivity screening.

[4] = target: T2, mouse ENTPD2 (Mus musculus, UniProt O55026); assay: Antibody specificity: binding to mouse ENTPD2
T2 construct: residues 29-462 of mouse or rat ENTPD2 (the extracellular domain); mouse IgK signal peptide (N); His6; made in house; host or cells: FreeStyle 293-F cells, transient transfection
T2 sequence (O55026 29-462): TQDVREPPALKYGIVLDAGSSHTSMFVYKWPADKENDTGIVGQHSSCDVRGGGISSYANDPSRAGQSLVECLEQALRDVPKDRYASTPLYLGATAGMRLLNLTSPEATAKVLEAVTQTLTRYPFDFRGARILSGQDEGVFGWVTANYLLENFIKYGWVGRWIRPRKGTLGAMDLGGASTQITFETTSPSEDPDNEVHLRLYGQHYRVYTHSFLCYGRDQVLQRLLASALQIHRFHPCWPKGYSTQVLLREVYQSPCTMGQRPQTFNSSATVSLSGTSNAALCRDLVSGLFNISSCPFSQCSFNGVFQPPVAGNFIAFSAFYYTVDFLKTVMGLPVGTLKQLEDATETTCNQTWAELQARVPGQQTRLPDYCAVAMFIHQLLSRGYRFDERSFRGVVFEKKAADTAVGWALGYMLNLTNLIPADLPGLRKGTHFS
Source text: Antibody specificity for mAbl-mAblO was confirmed. […] Antibodies mAb8, mAb9, and mAb10 show weak affinity to mouse ENTPD2. None of the selected antibodies bind to rat ENTPD2.

[5] = 10 to 100 mg/kg i.v. (10-fold increase in dose), plasma
[6] = single i.v. dose, 3 to 10 mg/kg (3.3-fold increase in dose), plasma

B1: mAb1: humanized anti-human ENTPD2 human IgG1 from mAb17; heavy chain SEQ ID NO: 12, light chain SEQ ID NO: 23 (antibody)
heavy: EVQLVQSGAEVKKPGESLKISCKASGYTFTDYNMDWVRQMPGKGLEWMGDINPKYDISTYNQQFKGQVTISADKSIRTAYLQWSSLKASDTAMYYCARRGFFLYYGINYYYFDVWGQGTLVTVSSASTKGPSVFPLAPSSKSTSGGTAALGCLVKDYFPEPVTVSWNSGALTSGVHTFPAVLQSSGLYSLSSVVTVPSSSLGTQTYICNVNHKPSNTKVDKRV[here human IgG1 Fc without letters]
light: DIQLTQSPSSLSASVGDRVTITCSASSSVSYIHWFQQKPGKAPKLLIYSTSNLASGVPSRFSGSGSGTFFTLTISSLQPEDFATYFCHQWSSYPWTFGQGTKVEIKRTVAAPSVFIFPPSDEQLKSGTASVVCLLNNFYPREAKVQWKVDNALQSGNSQESVTEQDSKDSTYSLSSTLTLSKADYEKHKVYACEVTHQGLSSPVTKSFNRGEC
- Apparent FACS binding at 50 nM [1]: No binding
- plasma clearance ([2]; 3 mg/kg i.v.): approximately 12 mL/day/kg
- plasma clearance ([2]; 10 mg/kg i.v.): approximately 7 mL/day/kg
- increase in AUC(0-336 h) [2, 5]: approximately 9.5 -fold
- increase in AUC(0-inf) [2, 5]: approximately 9.5 -fold
- plasma clearance ([2]; dose range 10 to 100 mg/kg i.v.): approximately 7 ml/day/kg
- Cmax ([2]; 3 mg/kg, Study Day 1, mean n = 3): 100 µg/mL
- Cmax ([2]; 10 mg/kg, Study Day 1, mean n = 3): 352 µg/mL
- Cmax ([2]; 10 mg/kg, Study Day 15 (second dose), mean n = 3): 374 µg/mL
- increase in AUC(0-inf) [2, 6]: 5.9 -fold
- increase of AUC(0-336 h) [2, 6]: 5.3 -fold
- Apparent FACS binding at 50 nM [3]: No binding
- affinity / cross-reactivity to mouse ENTPD2 [4]: not mouse ENTPD2 cross-reactive
- BIACore KD ([4]; Mouse ENTPD2): No binding
